# Measured values as given in the RNAGym collection of RNA variant scans (doi:10.7554/elife.90254).
# The source gives no read counts; variants with many changes may rest on few reads.
# B1: LINE1-mini (parent)
# chain: GGCAGAGCUCAACACAGCGUGGCAAAGUGGCUGUGGCUAGACUGCC
# Variants of: B1
# Test: self-cleavage, relative activity (ratio to wild type); higher = more cleavage; in vitro, sequencing; the parent is a self-cleaving ribozyme
row,Variant,self-cleavage
1,GGCAGAGGUCGACACAGCGUGGCAAAGUGGCUGAGGCUAGACUGCC,0.03
2,GGCAGAGCUCAACUCAGCGUGGCAAAGUGGAUGUGGCUUGGCUGCC,0.14
3,GCCAGAGCUAAACACUGCGUGGCAAAGUGGCUGUGGAUAGACUGCC,0.03
4,GGCAGAGCUCAACACAGAGUGGCAGAGUGGCUGUGGCUAGACUGCU,0.04
5,GGCAGAUCUCAACACAGCGUGUAAAAGUGGCUGUUGCUAGACUGCC,0.06
6,GGCAGAGCUCAACACAGCGUGGCCAAGUGGUUGUGGCUAGACUGCU,0.18
7,GGCAGGGAUCAACACAGCGUGGCAAAGUGGCUGUGGGUAGACUGCA,0.01
8,GGCAGAGCUCAACACAGCGUGUCUAAAUGGCUGUGGAUAGACUGCC,0.03
9,GGCAGAGCUCAACAGAGCGUGGCUAAGUGGCUGUGGCUAAACUGCC,0
10,GGCAGAGAACAACACAGCUUGGCAAAGUGGCUGUGGCUAGACUGCC,0.12
11,GGCAGAGCUCAACACAGCGGGGCAAAGGGGCUGUGGCUAGAAUGCC,0.12
12,GGCAGAGCUCAACAAAGCGUGGCAAAGUGGCCGUGUCUAGACUGCC,0.07
13,GGCAGAGCUCAACACAGCGUGGUAAAGUGGCUGAGCCUAGACUGCC,0.05
14,GGGAGCGCUCAACACAGCCUGGCAAAGUGGCUGUGGCUAGACUGCC,0.17
15,GGCAGAGCUCAACACAGCCUGGCAACGUGGCUGUGGCUAGAUUGCC,0.38
16,GUCCGAGCUAAACACAGCGUGGCACAGUGGCUUUGGCUAGACUGCC,0.06
17,GGCAGAGAUCAACACAGCGUCGCAAAGUGGCUGUGGUUAGACUGCC,0.04
18,GGCAGCGCUCAACACAGCGUGGCAAAGUGGCUGUGGCUGGACUGCU,0.02
19,GGUAGAGCAAAACACAGCGUGGCAAAGUGGCUGUGGCUAGACUGCC,0.03
20,GGCAGAGCUCAACACAGCCUUGCAAACUGGCUGUCGCUAGACUGCC,0.33
21,UGCAUAUCUCAACACAGCGUGGCAAAGUAGCUGUGGCUAGACUGCC,0.11
22,GGAAGAGCAUAACACAGCGUGGCAAAGUGGCUGUGGCUAGACCGGC,0.11
23,GGCAGAGCUCAACUCUGCGUGGCAAAGUGGCUGUGGCCAUACUGCC,0.07

row,Variant,self-cleavage
1,GGCAAACCUCAAGACAGCGUGGCAAAGUGGCUGUGGCUAGACUGCC,0.15
2,GGCAGAGCUCAACACAGCGUGUCAAUGUGGCUGUGGCGAGUCUACC,0.01
3,GGCAGAGCUCAACACAGCGUGGCAAAGUGGAUGUGGCAAGACUGCG,0.12
4,UGCAGAGCUCAAUACAGCGUGGUAUAUUGGCUGUGGCUAGACUGCC,0.04
5,GGCAGAGCUCAACACAGCGUGGCAAACUGGCUGUGGCUAGACCGAC,0.04
6,GGCAGAGAUAAACACAGCGUGGCACAGUGGCUUUGGCUAGUCUGCC,0.02
7,GGCAGAGCUCAACGCAGCGUGUCAUAGUGGCUGUGGCUAGACUGCC,0.27
8,UGAAGAGCUAAACACAGCGUGGCAACGUGGCUGUGGGUAGACUGCC,0.03
9,GGCUCAGCUCACCACAGCGUGGCAAAGUGGCUGUGGCUACACUGCC,0.07
10,GGCAGAGCUCAACACGUCGGGGCAAAGUGUCUGUGGCUAGACUGCC,0.07
11,GGCAGAGCUCAACGCAGCGGUGCAAAGUGGCUGUGGCUAGACUGCC,0.33
12,GGCAUAGCUCCACACAGCGUGGCAAAGUGGCUAUGGCUAGACUGCC,0.01
13,GGCAGAGCUUAACACAGCGUUGCAUAGUUGCUGUGGCUAGAAUGCC,0.09
14,GGGAGAGCUCAAUACAGGGUGGCAAAGUGGCUGUGGCAAGACUGCC,0.06
15,UGCAGAGAUCAACACAGCGCGGCAAAGUGUUUGUGGCUAGACUGCC,0.03
16,GGCAGAGCUCAACACAGGGUGGCAAAAUGGCUGUGGCUAGAGUGCU,0.01
17,GACAGAGCUCAGCACAGUGUGGCAAAGUCGCUGUGUCUAGACUGCC,0.01
18,GGCAGAGCUCAACACAGCGUGGCAAAGUGGCUAUUGCUAGAGUGCC,0.02
19,GGCAGAUCUCAACACAGCGUGGCAAUGUCUCUGUGGCUAGACUGCC,0.05
20,AGCAGAGCGCAACACAGCGUGGCUAAGUGGCUGUGGCUAGACUGCC,0.57
21,GGCAGAGCUCAACACAACGUGCCAUAGUGGCUGUGGCUAGACUGCC,0.7
22,GGCAGACCUCAGCACAGCGUGGCAUAGUGGCUGUGGCUAGACUGCC,0.01
23,GGCAUAGCUUGACACAGCGUGGCAAAGUGGCUGUGGCUAGACUACC,0.01

row,Variant,self-cleavage
1,GGCAGACCUCAACCCAGCUGGGCAAAGUGGCUGUGGGUAGACCGCC,0.07
2,GGCAGAGCGCAACACAGCGUGGCAACGUGGCUGUGGCUAGGCUGCC,0.09
3,GGCAGAUCUCAACACAGCGUGGCCAAGUGGCGGUGGAUAGACUGCC,0.03
4,GACAGAGUUCAACACAGCGUGGCAAAUUGGUUGCGGCUAGACUGCC,0.09
5,AGCAGAGCUCAACACAACGUGGCAAAGUGGCUUUGGCUAGACUGCC,0.05
6,GGCAGAGAUAAACACAGAGUGGCAAAGUGGCUGUGGCUAGACUGCC,0.04
7,GGCAGAGCUCAACACACCGUCUCAAAGUGGCGGUGCCUAGACUGCC,0.08
8,GGCAGAGCUUAACACUGCGUGGCAAAAUGGCUGUGACUAAACUGAC,0.02
9,AGCAGAGCUCACAACAGCGUGGCAAAGUGGCUGUGGCUAGACUACC,0.13
10,GGCAGAACUCAACAAAGCGAGGCACAGUGUCUGUGGCUAGACUGCC,0.05
11,GGCAGAGCUCCACAUACCGUGGCAAAGUGGCUGUGGCUAGACUGCC,0.02
12,GCCAGGUCUCUACACAGCGUGGCAAAGUGGCUGUGGCUAGACUGCC,0.02
13,GGCAGAGCUCAACACAGCGUGGCAAAGGGGCUGUCGCUUGACUGCC,0.07
14,GGAAGUGCUCAACACAGCGUGGCAAAGUGGCUCUGGCUAGACUGCC,0.15
15,GGCUGAGCUCAACACAACGUGGCAAGGUGCCUGUGGCUUGACUGGC,0.01
16,GGCAGAGCUCAACUCAGCGUGGCAAAGUGGCGGUGGCGAGACAGCC,0.01
17,GGCAGAGCUAAACACAGGGUGGCAAAGCGGCUGUGGCUAGACUGCC,0.09
18,GGCAUGGCUCAACACAGUGUGGCAAAGUGGCUUUGGCUAGACUGCC,0
19,GUCAGAGCUCAACACGGCGUGGCGAAGUGGCUGUGGCUAUACUGCC,0.01
20,GGUAGAGCUCAACACAGCGUGGCAAAGUGUCUCUGGCUAGACUGCC,0.05
21,GGCAGAGCACAACACAGCGUGGCAAAGUCGCUGUAGCUAGACUUCC,0.1
22,GGCAGAGCUCAACACAGCGUGACAAAGUGGCUGAGGCUAGACCGCC,0.05
23,GGCAGAGCUGACCACUGCGUGGCAAAGUGGCUGUGGCUAGACUAUC,0.01

row,Variant,self-cleavage
1,GGCAGAGCUCAACACAUCGUGGCAAAGUGGGUGUGGCUAGACUGAC,0.54
2,GGCUGAACUCCACACAGCGUGGUAAAGUGGCUGUGGCUAUUCUGCC,0.03
3,GGCAGAGCGCAACACAGCGUCGCAAAGUGGCUGUAGCUAGAAUACC,0.06
4,GGCAUAGCUCAACAUAGCGUGGCAAAGUGGGUGUGGUUAGACUGCC,0.04
5,GGCAGAGCUCAACGCACCGCGGCAAAGUGGCUAUGGCUAGACUACC,0.05
6,GGCAGAGCUAAACACGGCGUGGCAAAGUGGCUGAGCCUUGACUGAC,0.01
7,GGCAGAGCUCAACACAGGGUGGCCAAGUGGCUGUGGCUAGUCUGCC,0.04
8,GGCAGCGCUAGACACAGCGUGGCAAAGUGGCUGUUGCUAGACUGCC,0.01
9,GGCAGAGCUCGACACAGCGUUUCAAAGUGGCUGUGGAUAGACCGCC,0
10,GGCAGUGUUCAACACAGCGUGGCCAACUGGCUGUGGCUAGACUGCC,0.55
11,GGGAGAGCUCAACACAGCUUGGCAAAGUGGCUGUGGCUAGAAUGCC,0.09
12,GGCAGAAAUCAACACAAAGUGGCAAAGUGGCUGUGGCUAGACUGCG,0.27
13,GGCAGAGCUCCACACAGAGUGGCAAGGUGGCUGUGACUAUUCUGCC,0.01
14,GGCAGAGCUCAACACAGCGUGGAAAAGUGGCUAUGGCUAAACUGCC,0.05
15,GGCAGAGCUCAACACAGCGUGCCAACUUGGCUGUGGCUAGACUGCA,0.45
16,GGCAGAGCUCAACACAGCGUGGCAAACUGGCUUUGGCUACACUACC,0.04
17,GGCAGAGCUCAACACAGCGUGGCAAAGUGGCGGUGGCUAGAAUUCC,0.02
18,GGCAGAGCUCACCGCAGCGUGGCAAAGUGGCUGCCGCUAGACUGCC,0.03
19,GGCAGAGCUCAACACAUCGUGGCAAAGUGGCUGUUGCUAGACGGCC,0.08
20,GGCAGAGCUCAACACGACGUGGCAAAGAGGCUGUGGCUAGACUGCU,0.02
21,GGCAGAGCUCUACACAGCGGGGCAAAGUGGCUGAGGCAAGACUGCA,0.01
22,GUCAGAGCUCAACACAGCGUGGCAAAGUGGCUGUAGUUAGACUGCC,0.1
23,GGCAGAGCUCAAAACAGCGUGGCGAAGUGGCUGCGGCUAGUCUGCC,0.02

row,Variant,self-cleavage
1,GGCAGAGCUCAAUACAGCGUGGCAAAGUAGCUGUGUCUAGACUGCC,0.31
2,GCCGGAGCUCAACACAGCGUGGCAAAGUGUCUGUGGCUAGACUGCC,0.02
3,GGCAGAGCUGAAAACAGCGUGGCAAGGUGGCUGUGGCUAGACUGCU,0.02
4,GGCAGAGCUCAACACCGCGUGGCAAAGUGGCAGUGACUACAUUGCC,0.24
5,GACUGAGCUCAACCCAGCGUGGAAAAGUGGCUGUGGCUUGACUGCC,1.19
6,GGCAGAGCUCAACACAGCGUGGCAAAGUAACUGUGGCUAGACUGCU,0.28
7,GGCAGAGGUUAACACAGUGUGGCAAAGUGGCUGUGGCUAGACUGCC,0.02
8,GGGAGAGCUCAACACAGCGUGGCAAAGAAGCUGUGGCUAGACUGCU,0.24
9,GGCCGAGCUCAACACAGAGUGGCAAAGUGGAUUUGGCUAGACUGCC,0.02
10,GGGAGAGAUCAACACAGCGUGGCAAAGUGGAUGUGGCUAGACUGCC,0.32
11,GGCAGAGCUCAACACAGCGUGUCAAAGUGGCUGCUGCUAGACUGCC,0.08
12,GGCAGAACUCAACACAGUGUAGCAAAGUGGCUGUGGCUAGACUGCU,0.11
13,CGCAGAUCUCAACACAGCGUGGUAAAGUGGCUGUGGCUAUACUGCC,0.04
14,UGCAGAGCUCAACACAGCGUGGCAAAGUGGCUGUGGCUUGGCUGCC,0.05
15,GGCAGAGGUCAACGAAGCGUGGCAAAGUGGCUGUAGCUAGACUGCC,0.08
16,GGCAGAGCUAAACACAGCGUGGCAAAAUGGCUCUGGCUAGACUGCC,0.03
17,GGCAGAGAUCAACUCAGCGUGGCAAAGUAGCUGUGGCUUGACUGCC,0.19
18,GGCAAAGCUUAACACUGCGUGGCAAAGUGGCUGUGGCUAGACUGCC,0.14
19,GGGAGAGCUUAACACAGCGUGGCAAAGUAGCUGUGGAUAGACUGCC,0.08
20,GGCAGAGCUCCGCACAGCGUGGGAAAGUGGCGAUCGCUAGACUGGG,0
